From patent publication US20250179172A1 (HAINAN SIMCERE ZAIMING PHARMACEUTICAL, published 2025) come the findings set out here.

In assay [1] the target is T1, human CD5, full length, on cells (Jurkat, endogenous; CHO-K1-human CD5, transfected) (human, UniProt P06127 25-495).
T1 construct: Jurkat cells carry the endogenous protein; also called hCD5; CHO-K1-hCD5-2B2
T1 sequence: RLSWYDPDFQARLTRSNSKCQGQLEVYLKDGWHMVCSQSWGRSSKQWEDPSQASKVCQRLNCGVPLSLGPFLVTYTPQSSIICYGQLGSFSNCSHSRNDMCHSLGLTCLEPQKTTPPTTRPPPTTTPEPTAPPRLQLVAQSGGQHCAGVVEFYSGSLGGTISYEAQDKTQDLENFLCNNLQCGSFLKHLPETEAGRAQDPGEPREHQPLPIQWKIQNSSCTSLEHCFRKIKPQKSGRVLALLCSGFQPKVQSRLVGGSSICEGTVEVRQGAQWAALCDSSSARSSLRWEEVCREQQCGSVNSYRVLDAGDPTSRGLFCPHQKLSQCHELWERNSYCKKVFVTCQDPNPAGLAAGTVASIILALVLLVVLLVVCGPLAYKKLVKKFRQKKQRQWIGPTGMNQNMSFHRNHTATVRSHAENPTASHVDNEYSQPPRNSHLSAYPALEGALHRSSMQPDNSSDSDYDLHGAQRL
Description: FACS on CHO-K1-human CD5 cells. An excerpt: The desired cells were expanded to a logarithmic growth phase in a T-75 cell culture flask. Adherent cells CHO-K1-human CD5 were removed from the culture medium by pipetting, and the cells were washed twice with a PBS buffer, digested with trypsin, and washed twice with a PBS buffer again after the digestion was stopped. For suspension cells Jurkat, the medium supernatant was discarded by direct centrifugation, and the cell pellet was washed twice with PBS. After the cells obtained in the last step were subjected to cell counting, the cell pellet was resuspended to 2×10⁶ cells/mL with a blocking solution [PBS+2% (w/w) BSA] and added to a 96-well FACS reaction plate with 50 μL/well. The VHH-hFc or control antibody was added with 50 μL/well, and the plate was incubated on ice for 2 h. […] After the plate was centrifuged and washed for 5 times with a PBS buffer, the results were assayed and analyzed by FACS (FACS Canto™, purchased from BD Biosciences). Data analysis was performed by software (BD FACSDiva) to obtain the mean fluorescence intensity (MFI) of the cells. Analysis was then performed by software (GraphPad Prism8), data were fitted, and EC₅₀ values were calculated. […] The same method was used to assay the binding reactions of 1 nM and 10 nM VHH-hFc antibodies with Jurkat cells and endogenous CD5-negative Raji cells, and to assay the binding reactions of 1 nM and 10 nM VHH-hFc antibodies with CHO-K1 cells and CHO-K1-human CD5.

Assay [2] addresses T2, human CD5 (Arg25-Pro372)-His protein (Acro, Cat. No. CD5-H52H5) (human, UniProt P06127 25-372).
T2 construct: range 25-372; also called human CD5-His; hCD5-His; not shown: His tag
T2 sequence (looked up): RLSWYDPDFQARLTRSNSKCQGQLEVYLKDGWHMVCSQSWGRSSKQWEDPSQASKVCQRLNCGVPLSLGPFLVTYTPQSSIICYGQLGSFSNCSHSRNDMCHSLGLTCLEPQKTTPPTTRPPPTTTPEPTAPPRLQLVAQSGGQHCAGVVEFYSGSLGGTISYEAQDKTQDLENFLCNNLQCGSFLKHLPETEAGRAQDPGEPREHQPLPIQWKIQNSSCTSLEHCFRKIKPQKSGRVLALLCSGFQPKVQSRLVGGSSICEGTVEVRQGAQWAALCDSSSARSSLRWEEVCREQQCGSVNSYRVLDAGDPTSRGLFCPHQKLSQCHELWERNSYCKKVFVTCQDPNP
Description: ELISA on hCD5-His, antibody 1 nM. The protocol:
(§1) The binding activity of the H65 antibody prepared above with human CD5 protein was subjected to ELISA assay. A purchased commercial antigen (human CD5-His) was diluted with PBS to obtain a final concentration of 2 μg/mL, and then added to a 96-well ELISA plate with 100 µL/well. The plate was sealed with a plastic film and incubated at 4° C. over the night, washed twice with PBS in the next day, added with a blocking solution [PBS+2% (w/w) BSA] and blocked at room temperature for 2 h. The blocking solution was drained out, and 100 nM of the H65 antibody or negative control antibody hIgG1 after gradient dilution was added, namely, the obtained product was the antibody Anti-HEL-hIgG1 against hen egg lysozyme (purchased from Biointron, Cat. No. B117901) with 50 μl per well. After incubation for 2 h at 37° C., the plate was washed for 3 times with PBS. A secondary antibody labeled with HRP (horseradish peroxidase) (A0170, purchased from Sigma) was added. After incubation for 2 h at 37° C., the plate was washed for 5 times with PBS. A TMB substrate was added with 50 μL/well and incubated at room temperature for 30 min, then a stop solution (1.0 N HCl) was added with 50 μL/well.
(§2) To assay the binding activity of VHH-hFc to human CD5 protein, ELISA assay was performed according to the method described in Example 2.2. […] IgG control is hIgG1, and data in the table are values of OD_{450 nm}.
A general note: In an ELISA, binding on a coated surface is turned into a signal by an enzyme label.

Assay [3] addresses T2, human CD5 (Arg25-Pro372)-His protein …. Description: ELISA on hCD5-His, antibody 10 nM. The protocol:
as §1, §2

For assay [4] the target is unchanged. Description: ELISA on hCD5-His, antibody 100 nM. The protocol: as §1, §2
The target is the same in assay [5]. Description: ELISA on hCD5-His, antibody 0.01 nM. The protocol:
as §1, §2

For assay [6] the target is unchanged. Description: ELISA on hCD5-His, antibody 0.001 nM. The protocol:
as §1, §2

The target is the same in assay [7]. Description: ELISA on hCD5-His, antibody 0.0001 nM. The protocol: as §1, §2

Usually EC50 stands for the concentration giving half of the maximal effect. Lower therefore signals higher potency in that assay.

B1: S005-NB144-31 VHH-hFc (Fc fusion)
chain: EVQVVESGGGLVQPGGSLRLSCAASGFTLDYYAIGWFRQAPGKEREGLSCISTSGGSTNYADSVKGRFTISRDNAKNTVYLQMNSLKPEDTAVYYCAASSFWDCAVVGTGSPKTGHLESVFGSWGQGTQVTVSS[human IgG1 Fc with changes not printed]
notes: VHH fused to human IgG1 Fc; no linker stated; also called S002-NB144-31
Take B1: the concentration giving a half-maximal response (EC50) in assay [1] came to 3.47 nM. For the same molecule, in assay [1], the “Max MFI” value is 5680 MFI. Also, the OD450 in assay [2] is 1.84 OD450; in assay [3] it was 2.07 OD450; in assay [4], 2.67 OD450; in assay [5] it was 0.39 OD450; in assay [6], 0.21 OD450; in assay [7], 0.16 OD450.

B2: S005-NB144-6 VHH-hFc (Fc fusion)
chain: QVQLVESGGGLVQAGGSLRLSCAASGSIFSISVMGWYRQAPGKERETVAVISSGGSTYYADSVKGRFTISRDNAKNTLYLQMNSLKPEDTAVYYCNADFETASGSPLYESWGQGTQVTVSS[human IgG1 Fc with changes not printed]
notes: VHH fused to human IgG1 Fc; no linker stated
In the case of B2, the EC50 in assay [1] was found to be 0.21 nM. The “Max MFI” value in assay [1] was determined as 3660 MFI. For the same molecule, the OD450 is 1.84 OD450 in assay [2]; 2.28 OD450 in assay [3]; 2.66 OD450 in assay [4]; 0.26 OD450 in assay [5]; 0.14 OD450 in assay [6]; 0.11 OD450 in assay [7].

B3: S005-NB144-7 VHH-hFc (Fc fusion)
chain: EVQVVESGGGLVQAGGSLRLSCAASGSIFSINLLGWYRQAPGKERESVAILSSGGSTYYADSVKGRFTISRDNVKNMLYLQMNSLKPEDTAVYYCNAVGGIATLRDYWGQGTQVTVSS[human IgG1 Fc with changes not printed]
notes: as for B2
B3 displayed an EC50 in assay [1] of 0.75 nM. Besides, in assay [1], the “Max MFI” value stood at 4090 MFI. The OD450 in assay [2] stood at 1.55 OD450; in assay [3] it was 1.89 OD450; in assay [4] it was 2.45 OD450; in assay [5], 0.88 OD450; in assay [6], 0.71 OD450; in assay [7], 0.59 OD450.

B4: S005-NB144-3 VHH-hFc (Fc fusion)
chain: QLQLVESGGGLVQPGGSLRLSCAASGFTFSSYAMSWYRQAPGKERELVAAITSAGGSTTYADSVKDRFTISRDNAKNTVSLQMNSLKPEDTAVYYCNAYCTGYVCHEGGYDYWGQGTQVTVSS[human IgG1 Fc with changes not printed]
notes: VHH variable region recombined into vector BI3.4-huIgG1 with signal peptide and human IgG1 Fc; no linker between VHH and Fc is stated
Molecule B4 showed an EC50 in assay [1] of 2.71 nM. Also, the “Max MFI” value in assay [1] came to 3240 MFI. The OD450 turned out to be 1.7 OD450 in assay [2]; 2.05 OD450 in assay [3]; 2.34 OD450 in assay [4]; 0.21 OD450 in assay [5]; 0.12 OD450 in assay [6]; 0.09 OD450 in assay [7].
